The values that follow come from PMC4336329 (PLoS ONE, 2015).

SMILES strings stand for the structures. About 14,000 (4.5%) of roughly 310,000 compounds showed an effect of 50% or more. The effect is printed as a negative number. The list shows a part of the results.
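Also: peak tail current of the secondary pulse compared with the same well before compound.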

This test deals with human ether-à-go-go-related gene (hERG) potassium channel (human, UniProt Q12809). Put plainly: primary screen, population patch clamp on CHO cells stably expressing hERG.
human ether-à-go-go-related gene (hERG) potassium channel, sequence (Q12809 whole entry, looked up): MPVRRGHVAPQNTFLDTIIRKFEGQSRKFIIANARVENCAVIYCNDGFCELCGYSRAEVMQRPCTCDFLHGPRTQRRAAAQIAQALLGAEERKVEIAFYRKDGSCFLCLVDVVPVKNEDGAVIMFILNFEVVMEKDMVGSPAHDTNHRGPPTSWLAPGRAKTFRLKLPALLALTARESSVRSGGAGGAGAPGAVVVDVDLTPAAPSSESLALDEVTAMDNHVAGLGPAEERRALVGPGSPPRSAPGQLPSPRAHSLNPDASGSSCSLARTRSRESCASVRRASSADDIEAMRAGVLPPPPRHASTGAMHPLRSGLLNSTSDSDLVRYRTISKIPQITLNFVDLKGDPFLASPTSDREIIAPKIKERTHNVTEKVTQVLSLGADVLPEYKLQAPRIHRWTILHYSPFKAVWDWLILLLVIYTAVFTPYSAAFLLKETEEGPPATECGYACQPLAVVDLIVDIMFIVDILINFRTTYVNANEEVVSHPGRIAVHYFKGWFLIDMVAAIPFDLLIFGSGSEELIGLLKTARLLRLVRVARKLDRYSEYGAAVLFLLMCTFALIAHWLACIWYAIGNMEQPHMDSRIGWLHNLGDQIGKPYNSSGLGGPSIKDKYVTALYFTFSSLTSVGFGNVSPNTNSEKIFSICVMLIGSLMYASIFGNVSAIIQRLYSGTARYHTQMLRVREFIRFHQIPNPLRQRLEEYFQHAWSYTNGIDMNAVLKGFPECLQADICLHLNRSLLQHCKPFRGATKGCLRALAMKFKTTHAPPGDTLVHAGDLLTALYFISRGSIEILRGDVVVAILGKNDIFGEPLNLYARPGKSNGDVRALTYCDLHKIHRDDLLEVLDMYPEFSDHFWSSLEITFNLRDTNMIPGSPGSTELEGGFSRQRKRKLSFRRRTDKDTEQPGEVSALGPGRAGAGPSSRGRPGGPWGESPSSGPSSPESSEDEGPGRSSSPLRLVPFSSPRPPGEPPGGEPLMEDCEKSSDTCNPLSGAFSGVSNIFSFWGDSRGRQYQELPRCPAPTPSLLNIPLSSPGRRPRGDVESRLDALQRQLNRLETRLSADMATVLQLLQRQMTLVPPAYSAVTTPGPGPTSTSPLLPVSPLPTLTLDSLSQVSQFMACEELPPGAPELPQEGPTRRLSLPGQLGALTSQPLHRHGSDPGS
For the compound `Cc1ccc(S(=O)(=O)/N=c2\sccn2C)cc1`, the “hERG current change (%, negative = inhibition) at 10uM” value was determined as 16.1%.

In the case of `CCOC(=O)/C(=C\Nc1ccc(OC(F)(F)F)cc1)Sc1ncc(C(F)(F)F)cc1Cl`, the “hERG current change (%, negative = inhibition) at 10uM” value turned out to be 12.3%.

Take `CCC(C)(C)NC(=O)C(c1ccc(F)cc1)N(Cc1ccc(OC)cc1)C(=O)c1cnccn1` (centres unmarked): the “hERG current change (%, negative = inhibition) at 10uM” value is recorded as -11.8%.

As to `COc1ncccc1-c1nnn(-c2ccc(F)cc2)n1`, the “hERG current change (%, negative = inhibition) at 10uM” value is recorded as -4.4%.

On to `CCOC(=O)c1ccc(-c2ccc(C3Nc4ccccc4C(=O)N3O)o2)cc1` (centres unmarked), for which the “hERG current change (%, negative = inhibition) at 10uM” value is 11.2%.

As to `Cl.N#Cc1ccc(OCC(=O)N2CCN(Cc3ccc4c(c3)OCO4)CC2)cc1`, the “hERG current change (%, negative = inhibition) at 10uM” value is listed as -68.1%.

`CNc1nc(Cl)c(SC)c(N2CCOCC2)n1`: the “hERG current change (%, negative = inhibition) at 10uM” value is recorded as -6.75%.

In the case of `COc1cc(NS(=O)(=O)c2ccc(NC(C)=O)cc2)ncn1`, the “hERG current change (%, negative = inhibition) at 10uM” value was determined as 0.81%.

Take `CC(C(=O)O)n1ncc2ccccc2c1=O` (centres unmarked): the “hERG current change (%, negative = inhibition) at 10uM” value worked out at 6.13%.

Regarding `CN(c1ccccc1)S(=O)(=O)c1ccc(C(=O)Nc2nnc(C3CC3)s2)cc1`, the “hERG current change (%, negative = inhibition) at 10uM” value was -11.2%.

Regarding `Cc1nnc(SCC(=O)NC2CCCCC2)s1`, the “hERG current change (%, negative = inhibition) at 10uM” value is 10.7%.

`Cc1ccc(OCCNC(=O)CNC(=O)c2ccc(C)c(C)c2)cc1`: the “hERG current change (%, negative = inhibition) at 10uM” value is recorded as -9.96%.

For the compound `CCCNc1nc2c(c(=O)[nH]c(=O)n2C)n1Cc1cccc(Br)c1`, the “hERG current change (%, negative = inhibition) at 10uM” value amounted to 7.23%.

Turning to `O=C1C2CCCN2c2ccc(S(=O)(=O)N3CCOCC3)cc2N1Cc1ccccc1F` (centres unmarked), the “hERG current change (%, negative = inhibition) at 10uM” value is 6.99%.

On to `CN(c1ccccn1)c1ncnc2[nH]ncc12`, for which the “hERG current change (%, negative = inhibition) at 10uM” value was -9.28%.

Turning to `CC12CCC(O)CC1=CCC1C2CCC2(C)C1CCC21CCC(=O)O1` (centres unmarked), the “hERG current change (%, negative = inhibition) at 10uM” value is 2.62%.

As to `Cc1ccc(NC(=O)COC(=O)Cc2csc(-c3cccc(F)c3)n2)cc1C`, the “hERG current change (%, negative = inhibition) at 10uM” value came to 2.69%.

On to `Cc1ccc(Cl)cc1NC(=O)c1ccc(Cn2cc(Cl)cn2)cc1`, for which the “hERG current change (%, negative = inhibition) at 10uM” value amounted to 11%.

Take `CCC(CC)C(=O)Nc1ccccc1-n1cccc1`: the “hERG current change (%, negative = inhibition) at 10uM” value was 6.37%.

`CCOC(=O)c1sc2ncn(/N=C/N(C)C)c(=O)c2c1C`: the “hERG current change (%, negative = inhibition) at 10uM” value is -2.08%.

As for `COc1cc(C(=O)Nc2cccc(C(C)=O)c2)cc(OC)c1OC`, the “hERG current change (%, negative = inhibition) at 10uM” value is given as 7.4%.

`Cc1ccc(OC(=O)COc2ccccc2C)c(-n2nc3ccccc3n2)c1`: the “hERG current change (%, negative = inhibition) at 10uM” value is -8.27%.

Regarding `CCOC(=O)C1CCN(S(=O)(=O)c2ccc(-n3cnnn3)c(C)c2)CC1`, the “hERG current change (%, negative = inhibition) at 10uM” value is reported as -19.5%.

`O=C(NC1=NCCS1)[C@H](Cc1ccccc1)N1C(=O)c2ccccc2C1=O`: the “hERG current change (%, negative = inhibition) at 10uM” value is recorded as -4.73%.

`CC(=O)c1cccc(NC(=O)C2CCCN(S(=O)(=O)c3cccc4cccnc34)C2)c1` (centres unmarked): the “hERG current change (%, negative = inhibition) at 10uM” value came to 2.6%.

With `Cc1ccc2nc(C)c(C(=O)N/N=C/c3ccco3)cc2c1`, the “hERG current change (%, negative = inhibition) at 10uM” value is listed as -14.3%.

Consider `CCOc1ccc(C2CC(c3ccc(OC)cc3)n3ncnc3N2)cc1` (centres unmarked), for which the “hERG current change (%, negative = inhibition) at 10uM” value is listed as -11%.

Regarding `COc1ccccc1N1CCN(C(=O)c2sc3nc(-c4ccc(F)cc4)cn3c2C)CC1`, the “hERG current change (%, negative = inhibition) at 10uM” value is -34%.

As for `O=Cc1cccn1-c1ccc(O)cc1`, the “hERG current change (%, negative = inhibition) at 10uM” value was 11.3%.

For `Cc1c(Br)c(C(F)(F)F)nn1CC(=O)N(C)C1CCCCC1`, the “hERG current change (%, negative = inhibition) at 10uM” value was 7.18%.

With `CNC(=O)Nc1ccccc1F`, the “hERG current change (%, negative = inhibition) at 10uM” value turned out to be 14.3%.

As to `CC1(C)Cc2c(sc(NC(=O)c3ccco3)c2C#N)CO1`, the “hERG current change (%, negative = inhibition) at 10uM” value is reported as -2.37%.

As for `CC1(C)CC2(CCO1)OC(=O)CC2C(=O)NCCc1ccccc1` (centres unmarked), the “hERG current change (%, negative = inhibition) at 10uM” value amounted to 19.3%.

For the compound `O=C(NC(=S)Nc1ncccn1)c1ccc(F)cc1`, the “hERG current change (%, negative = inhibition) at 10uM” value is 15.9%.

Regarding `Cl.c1ccc(C2NCCc3ccccc32)cc1` (centres unmarked), the “hERG current change (%, negative = inhibition) at 10uM” value is -12.6%.

`CCc1ccc(OCC(=O)N2CC(C(=O)OC)Oc3ccccc32)cc1` (centres unmarked): the “hERG current change (%, negative = inhibition) at 10uM” value is reported as -17.2%.

Regarding `CCc1ccccc1NC(=O)c1cnn(-c2ccccc2)c1C`, the “hERG current change (%, negative = inhibition) at 10uM” value is given as -2.18%.

Take `CC(=O)N1CCN(C(=O)c2cc(S(=O)(=O)NCc3ccccc3)ccc2C)CC1`: the “hERG current change (%, negative = inhibition) at 10uM” value stood at 10.4%.

As to `CN(c1ccccc1)S(=O)(=O)c1ccc(NC(=O)C2CCCCC2C(=O)O)cc1` (centres unmarked), the “hERG current change (%, negative = inhibition) at 10uM” value turned out to be 12.3%.

Regarding `CC(CCN1C(Nc2ccccc2)=NC[C@@H]1C)c1ccccc1` (some centres unmarked), the “hERG current change (%, negative = inhibition) at 10uM” value is recorded as -52.4%.

With `COCc1cc(C)nc(N/N=C/c2ccc(Cl)c(Cl)c2)c1C#N`, the “hERG current change (%, negative = inhibition) at 10uM” value worked out at 12.4%.

As for `CC1(C)CC(=O)c2c(nn(-c3ccccc3)c2N)C1`, the “hERG current change (%, negative = inhibition) at 10uM” value is listed as 16%.

As for `COc1ccc(OC)c(-n2c(=S)[nH]c3cc(C(=O)N4CCCCC4)ccc3c2=O)c1`, the “hERG current change (%, negative = inhibition) at 10uM” value is 13.6%.

Take `Cc1cc(Br)c(Cl)cc1NC(=O)CN1C(=O)C2C3CC(c4ccccc4)C(C3)C2C1=O` (centres unmarked): the “hERG current change (%, negative = inhibition) at 10uM” value came out at 5.48%.
